Results from article PMC3335016, “Analysis of the Nse3/MAGE-Binding Domain of the Nse4/EID Family Proteins” (PLoS ONE, 2012).
Results are given in words; binding and its absence hold for the method and conditions named. For part of these data: In cells and extracts the contact can be indirect. Some entries that bind do so weakly or less than the wild type. For part of these data: Where a sequence is shown, tags or fusion partners need not be part of it. One block for each molecule: values may come before it.

Chains of the proteins cited; added tags and fusions are not shown. Residues count along the entry.
UniProt P43355: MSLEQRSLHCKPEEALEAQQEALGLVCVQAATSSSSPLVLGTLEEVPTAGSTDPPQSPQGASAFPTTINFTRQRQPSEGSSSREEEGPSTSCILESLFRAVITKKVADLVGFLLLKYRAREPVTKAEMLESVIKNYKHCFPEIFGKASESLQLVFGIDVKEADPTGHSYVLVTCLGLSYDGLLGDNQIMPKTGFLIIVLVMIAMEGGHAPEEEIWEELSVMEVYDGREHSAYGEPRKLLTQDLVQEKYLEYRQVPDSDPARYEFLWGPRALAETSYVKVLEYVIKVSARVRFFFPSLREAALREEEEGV
UniProt P43357, residues 94-314: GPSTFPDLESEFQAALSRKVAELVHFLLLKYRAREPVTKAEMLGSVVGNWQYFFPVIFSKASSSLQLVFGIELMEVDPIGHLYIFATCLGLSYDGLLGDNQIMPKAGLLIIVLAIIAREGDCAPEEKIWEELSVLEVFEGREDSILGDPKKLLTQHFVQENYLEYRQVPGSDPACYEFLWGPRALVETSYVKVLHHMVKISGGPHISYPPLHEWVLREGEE

Experiments:
[1] = target: T1, GST-His-S-tagged NSE4a(aa150-179) (human) (UniProt Q9NXX6); test: pull-down; GST-His-S fusion protein extracts pre-incubated with S-protein agarose beads; in vitro translated MAGE proteins added in 200 µl HEPES buffer, overnight; autoradiography; only the target purified
T1 sequence: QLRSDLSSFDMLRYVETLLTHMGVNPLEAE

[2] = target: T2, GST-His-S-tagged EID2b(aa135-161) (human) (UniProt Q96D98); test: as above
T2 sequence: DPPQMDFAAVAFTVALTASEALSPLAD

[3] = target: T3, GST-His-S-tagged EID2(aa197-225) (human); test: as above
T3 sequence: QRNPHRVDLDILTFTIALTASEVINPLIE

[4] = target: T4, GST-His-S-NSE4b(106-135) (human); test: as above
T4 sequence: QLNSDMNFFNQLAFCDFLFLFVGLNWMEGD

[5] = target: T5, GST-His-S-tagged EID1(aa146-177) (human) (UniProt Q9Y6B2); test: as above
T5 sequence: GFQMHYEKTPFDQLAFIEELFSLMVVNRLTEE

[6] = target: T6, EID2 WT peptide (aa 197-217) (human); test: pull-down; biotin-tagged EID2 peptides pre-bound to streptavidin-agarose beads; in vitro expressed proteins in 200 µl PBS, 2 h at 4°C; phosphorimaging; only the target purified
T6 sequence (peptide, biotin, linked via the SGSG spacer): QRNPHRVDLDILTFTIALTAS

EID2 peptide #12 (L208A) = target: T7, EID2 peptide #12 (L208A) (human, L208A (stands in the printed letters), biotin, linked via the SGSG spacer); test: ELISA; ELISA of EID2 peptides with MAGEA3(94-314) protein; unpublished data
T7 construct: source: synthetic peptide (Mimotopes)
T7 peptide: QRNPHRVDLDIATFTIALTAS

EID2 peptide #3 (human) = target: T8, EID2 peptide #3 (human); test: as above
T8 sequence (peptide, biotin, linked via the SGSG spacer): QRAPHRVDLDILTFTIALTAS

EID2 peptide #13 (human) = target: T9, EID2 peptide #13 (human); test: as above
T9 sequence (peptide, biotin, linked via the SGSG spacer): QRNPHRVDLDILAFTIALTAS

EID2 peptide #11 (I207A) = target: T10, EID2 peptide #11 (I207A) (human, I207A (stands in the printed letters), biotin, linked via the SGSG spacer); test: as above
T10 construct: source: synthetic peptide (Mimotopes)
T10 peptide: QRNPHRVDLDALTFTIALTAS

[7] = target: T6, EID2 WT peptide (aa 197-217) (human); test: as above
EID2 peptide #5 (human) = target: T11, EID2 peptide #5 (human); test: as above
T11 sequence (peptide, biotin, linked via the SGSG spacer): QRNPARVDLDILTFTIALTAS

EID2 peptide #10 (D206A) = target: T12, EID2 peptide #10 (D206A) (human, D206A (stands in the printed letters), biotin, linked via the SGSG spacer); test: as above
T12 construct: source: synthetic peptide (Mimotopes)
T12 peptide: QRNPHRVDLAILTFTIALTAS

EID2 peptide #7 (human) = target: T13, EID2 peptide #7 (human); test: as above
T13 sequence (peptide, biotin, linked via the SGSG spacer): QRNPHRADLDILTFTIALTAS

EID2 peptide #19 (S217A) = target: T14, EID2 peptide #19 (S217A) (human, S217A (stands in the printed letters), biotin, linked via the SGSG spacer); test: as above
T14 construct: source: synthetic peptide (Mimotopes)
T14 peptide: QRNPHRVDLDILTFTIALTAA

EID2 peptide #18 (T215A) = target: T15, EID2 peptide #18 (T215A) (human, T215A (stands in the printed letters), biotin, linked via the SGSG spacer); test: as above
T15 construct: source: synthetic peptide (Mimotopes)
T15 peptide: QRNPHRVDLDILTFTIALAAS

EID2 peptide #1 (Q197A) [8] = target: T16, EID2 peptide #1 (Q197A) (human, Q197A (stands in the printed letters), biotin, linked via the SGSG spacer); test: as above
T16 construct: source: synthetic peptide (Mimotopes)
T16 peptide: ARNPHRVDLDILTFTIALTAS

EID2 peptide #15 (human) = target: T17, EID2 peptide #15 (human); test: as above
T17 sequence (peptide, biotin, linked via the SGSG spacer): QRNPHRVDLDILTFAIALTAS

EID2 peptide #9 (L205A) = target: T18, EID2 peptide #9 (L205A) (human, L205A (stands in the printed letters), biotin, linked via the SGSG spacer); test: as above
T18 construct: source: synthetic peptide (Mimotopes)
T18 peptide: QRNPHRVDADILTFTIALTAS

[9] = target: T19, EID2 peptide #8 (D204A) (human); test: as above
T19 sequence (peptide, biotin, linked via the SGSG spacer): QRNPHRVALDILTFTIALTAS

EID2 peptide #4 (human) = target: T20, EID2 peptide #4 (human); test: as above
T20 sequence (peptide, biotin, linked via the SGSG spacer): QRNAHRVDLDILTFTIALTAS

[10] = target: T6, EID2 WT peptide (aa 197-217) (human); test: pull-down; as a6 with in vitro expressed MAGEC2(129-339); data not shown; only the target purified
[11] = target: T21, His-MBP-tagged Nse3(200-307) (S. pombe) (UniProt Q9Y7U4); test: pull-down; His-MBP-Nse3(200-307) extract pre-bound to amylose resin; in vitro translated Nse4 fragments added in 200 µl HEPES buffer, overnight; autoradiography; only the target purified
T21 sequence: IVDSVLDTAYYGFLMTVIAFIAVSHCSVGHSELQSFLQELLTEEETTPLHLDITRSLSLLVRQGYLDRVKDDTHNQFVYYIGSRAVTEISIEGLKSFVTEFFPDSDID

EID2 peptide #2 (R198A) = target: T22, EID2 peptide #2 (R198A) (human, R198A (stands in the printed letters), biotin, linked via the SGSG spacer); test: pull-down; biotin-tagged EID2 peptides pre-bound to streptavidin-agarose beads; in vitro expressed proteins in 200 µl PBS, 2 h at 4°C; phosphorimaging; only the target purified
T22 construct: source: synthetic peptide (Mimotopes)
T22 peptide: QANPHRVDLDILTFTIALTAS

EID2 peptide #1 (Q197A) [12] = target: T16, EID2 peptide #1 (Q197A); test: as above

Molecule: MAGEA1 (aa 1-309) (from UniProt P43355 1-309)
- binding [1]: binds
- binding [2]: binds
- binding [3]: binds
- binding [4]: binds
- binding [5]: binds
- binding [6]: binds

Molecule: MAGEA3(94-314) protein (from UniProt P43357 94-314) (domain or fragment)
- binding (EID2 peptide #12 (L208A)): binds
- binding (EID2 peptide #3 (human)): binds
- binding (EID2 peptide #13 (human)): binds
- binding (EID2 peptide #11 (I207A)): binds
- binding [7]: binds
- binding (EID2 peptide #5 (human)): binds
- binding (EID2 peptide #10 (D206A)): binds
- binding (EID2 peptide #7 (human)): binds
- binding (EID2 peptide #19 (S217A)): binds
- binding (EID2 peptide #18 (T215A)): binds
- binding (EID2 peptide #1 (Q197A) [8]): binds
- binding (EID2 peptide #15 (human)): binds
- binding (EID2 peptide #9 (L205A)): binds
- binding [9]: binds
- binding (EID2 peptide #4 (human)): binds

B3: MAGED4b (aa 1-741) (protein, UniProt Q96JG8 1-741)
chain: MAEGSFSVQSESYSVEDMDEGSDEVGEEEMVEGNDYEEFGAFGGYGTLTSFDIHILRAFGSLGPGLRILSNEPWELENPVLAQTLVEALQLDPETLANETAARAANVARAAASNRAARAAAAAARTAFSQVVASHRVATPQVSGEDTQPTTYAAEAQGPTPEPPLASPQTSQMLVTSKMAAPEAPATSAQSQTGSPAQEAATEGPSSACAFSQAPCAREVDANRPSTAFLGQNDVFDFTQPAGVSGMAFPRPKRPAPAQEAATEGPSAASGVPQTGPGREVAATRPKTTKSGKALAKTRWVEPQNVVAAAAAKAKMATSIPEPEGAAAATAQHSAEPWARMGGKRTKKSKHLDDEYESSEEERETPAVPPTWRASQPSLTVRAQLAPRPPMAPRSQIPSRHVLCLPPRNVTLLQERANKLVKYLMIKDYKKIPIKRADMLKDVIREYDEHFPEIIERATYTLEKKFGIHLKEIDKEEHLYILVCTRDSSARLLGKTKDTPRLSLLLVILGVIFMNGNRASEAVLWEALRKMGLRPGVRHPFLGDLRKLITDDFVKQKYLEYKKIPNSNPPEYEFLWGLRARHETSKMRVLRFIAQNQNRDPREWKAHFLEAVDDAFKTMDVDMAEEHARAQMRAQMNIGDEALIGRWSWDDIQVELLTWDEDGDFGDAWARIPFAFWARYHQYILNSNRANRRATWRAGVSSGTNGGASTSVLDGPSTSSTIRTRNAARAGASFFSWIQHR
- binding [4]: binds

B6: MAGEC2 (aa 6-373) (protein, UniProt Q9UBF1 6-373)
chain: GVPFRNVDNDSPTSVELEDWVDAQHPTDEEEEEASSASSTLYLVFSPSSFSTSSSLILGGPEEEEVPSGVIPNLTESIPSSPPQGPPQGPSQSPLSSCCSSFSWSSFSEESSSQKGEDTGTCQGLPDSESSFTYTLDEKVAELVEFLLLKYEAEEPVTEAEMLMIVIKYKDYFPVILKRAREFMELLFGLALIEVGPDHFCVFANTVGLTDEGSDDEGMPENSLLIIILSVIFIKGNCASEEVIWEVLNAVGVYAGREHFVYGEPRELLTKVWVQGHYLEYREVPHSSPPYYEFLWGPRAHSESIKKKVLEFLAKLNNTVPSSFPSWYKDALKDVEERVQATIDTADDATVMASESLSVMSSNVSFSE
- binding [4]: binds
- binding [6]: binds

The next lines start with the values.

- binding [10]: binds
B1: in vitro expressed MAGEC2(129-339) (domain or fragment, UniProt Q9UBF1 129-339)
chain: GLPDSESSFTYTLDEKVAELVEFLLLKYEAEEPVTEAEMLMIVIKYKDYFPVILKRAREFMELLFGLALIEVGPDHFCVFANTVGLTDEGSDDEGMPENSLLIIILSVIFIKGNCASEEVIWEVLNAVGVYAGREHFVYGEPRELLTKVWVQGHYLEYREVPHSSPPYYEFLWGPRAHSESIKKKVLEFLAKLNNTVPSSFPSWYKDALKD

- binding [11]: binds
Molecule: QLHIGRPKFNIELFTKNIKQFLNYPTSHSN (domain or fragment) [Nse4(75-104) fragment]

- binding [11]: binds
B2: Nse4(1-110) fragment (domain or fragment, UniProt Q6BDR8 1-110)
chain: MSSIDKRDLRKRYRNLINKVQESRLELVDEENNNLYETITTANDLFSSVDAPTEATLDALLLTKTVDLASIKARQLHIGRPKFNIELFTKNIKQFLNYPTSHSNVTRIQE

- binding [11]: no binding
B4: Nse4(1-77) fragment (domain or fragment, UniProt Q6BDR8 1-77)
chain: MSSIDKRDLRKRYRNLINKVQESRLELVDEENNNLYETITTANDLFSSVDAPTEATLDALLLTKTVDLASIKARQLH

- binding [1]: binds
- binding [2]: binds
- binding [3]: binds
- binding [4]: binds
- binding [5]: binds
- binding [6]: binds
- binding (EID2 peptide #2 (R198A)): binds
- binding (EID2 peptide #1 (Q197A) [12]): binds
B5: necdin (aa 1-321) (protein, UniProt Q99608 1-321)
chain: MSEQSKDLSDPNFAAEAPNSEVHSSPGVSEGVPPSATLAEPQSPPLGPTAAPQAAPPPQAPNDEGDPKALQQAAEEGRAHQAPSAAQPGPAPPAPAQLVQKAHELMWYVLVKDQKKMIIWFPDMVKDVIGSYKKWCRSILRRTSLILARVFGLHLRLTSLHTMEFALVKALEPEELDRVALSNRMPMTGLLLMILSLIYVKGRGARESAVWNVLRILGLRPWKKHSTFGDVRKLITEEFVQMNYLKYQRVPYVEPPEYEFFWGSRASREITKMQIMEFLARVFKKDPQAWPSRYREALEEARALREANPTAHYPRSSVSED
